Results from article PMC4336329 (PLoS ONE, 2015).
Among all 310,000 compounds or so, about 2,200 (0.71%) showed an effect of 50% or more. The effect is printed as a negative number. The list shows a part of the results.

molecular target: human ether-à-go-go-related gene (hERG) potassium channel (human, UniProt Q12809); assay: primary screen, population patch clamp on CHO cells stably expressing hERG
Sequence (Q12809 whole entry, looked up): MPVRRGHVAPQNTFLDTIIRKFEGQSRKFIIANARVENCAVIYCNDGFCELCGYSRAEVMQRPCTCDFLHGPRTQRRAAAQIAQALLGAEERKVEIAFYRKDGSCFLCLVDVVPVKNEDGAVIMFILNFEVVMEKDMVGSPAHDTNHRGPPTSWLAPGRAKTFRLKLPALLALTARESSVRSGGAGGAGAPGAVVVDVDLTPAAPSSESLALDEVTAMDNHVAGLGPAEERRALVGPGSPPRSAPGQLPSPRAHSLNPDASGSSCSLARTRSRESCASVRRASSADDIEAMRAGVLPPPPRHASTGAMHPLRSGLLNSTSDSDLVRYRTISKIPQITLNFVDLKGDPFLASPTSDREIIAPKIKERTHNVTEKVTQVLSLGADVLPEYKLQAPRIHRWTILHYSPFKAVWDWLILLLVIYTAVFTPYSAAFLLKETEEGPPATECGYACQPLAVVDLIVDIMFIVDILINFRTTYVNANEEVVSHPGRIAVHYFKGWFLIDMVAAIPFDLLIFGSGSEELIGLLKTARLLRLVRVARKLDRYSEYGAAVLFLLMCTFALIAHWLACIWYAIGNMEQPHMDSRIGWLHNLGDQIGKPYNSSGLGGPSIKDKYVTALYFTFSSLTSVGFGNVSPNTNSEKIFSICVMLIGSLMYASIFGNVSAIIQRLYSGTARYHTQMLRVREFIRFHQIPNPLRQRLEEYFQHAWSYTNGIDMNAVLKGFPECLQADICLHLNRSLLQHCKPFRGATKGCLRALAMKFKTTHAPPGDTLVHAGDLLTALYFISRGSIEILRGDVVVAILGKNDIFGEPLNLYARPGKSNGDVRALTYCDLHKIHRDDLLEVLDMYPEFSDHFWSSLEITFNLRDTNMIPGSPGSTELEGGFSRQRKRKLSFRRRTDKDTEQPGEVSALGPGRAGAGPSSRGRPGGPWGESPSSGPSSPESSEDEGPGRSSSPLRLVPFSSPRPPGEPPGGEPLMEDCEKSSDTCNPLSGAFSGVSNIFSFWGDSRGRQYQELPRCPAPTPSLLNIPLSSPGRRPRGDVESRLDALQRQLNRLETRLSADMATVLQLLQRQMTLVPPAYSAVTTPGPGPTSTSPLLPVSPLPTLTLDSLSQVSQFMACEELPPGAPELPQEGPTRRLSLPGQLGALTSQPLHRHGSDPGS

SMILES | hERG current change (%, negative = inhibition) at 1uM [%]
CC(C)c1ccc(OCCCN2CCCC2)cc1 | -23.4
Cc1cccc(C)c1NS(=O)(=O)c1c(C(=O)N2CCCCC2)c(C)n(C)c1C | 10.2
CCOC(=O)CN1C(=O)S/C(=C/c2ccc(N3CCCCC3)o2)C1=O | 9.14
CC(C)c1nc(N2CCOCC2)c(C#N)c2c1CCC2 | 20.1
CCCCN(C(=O)NC(=O)Nc1c(C)cc(C)cc1C)S(C)(=O)=O | 10.5
CCCCC(=O)Nc1ccc(C(=O)Nc2ccc3c(c2)OCO3)cc1 | 3.18
CN(C)CCNC(=O)c1ccccc1-c1ccccc1 | 6.1
CC1(OC(=O)c2cnc3ccccc3n2)C(=O)C=C2C=C(c3ccc(C#N)cc3)OC=C2C1=O (centres unmarked) | 9.36
O=C(N/N=C/c1ccc(O)cc1)c1cccc(N/N=C/c2ccc(O)cc2)c1 | 7.62
Cc1cccc(CN(CC(=O)N/N=C/c2cccs2)S(=O)(=O)c2ccc(Cl)cc2)c1 | 9.51
COc1ccccc1OCc1nnc(SCC(N)=O)n1-c1ccccc1 | 10.9
Cc1ccc(C(=O)C(C)OC(=O)c2ccccc2[N+](=O)[O-])cc1 (centres unmarked) | 8
O=C(Nc1ncccn1)c1ccc([N+](=O)[O-])cc1 | 12.4
Cc1ccc(NC(=S)N(C)C(c2ccccc2)c2ccccc2)cc1C | 16.6
O=C1CC(C(F)(F)C(F)(F)C(F)(F)F)=Nc2ccccc2N1 | -8.29
O=C(O)c1ccc(NNC(=S)Nc2cc(C(F)(F)F)ccc2Cl)cc1 | 13.4
CCOc1nc2cnccc2n(CC(=O)Nc2c(C)cccc2CC)c1=O | 13.8
CC12COC3(C(=O)Nc4ccc(Cl)cn4)CC1CCC32C (centres unmarked) | 4.26
CN(CC(O)COCc1ccccc1F)C1CCCCC1 (centres unmarked) | 2.48

SMILES | hERG current change (%, negative = inhibition) at 1uM [%]
CCc1c(C)c2cc(Cl)c(O)c(CN(C)C)c2oc1=O | 18.4
COc1ccc([N+](=O)[O-])cc1N(CC(O)CN1CCCCC1)S(=O)(=O)c1ccccc1 (centres unmarked) | 2.16
O=C1c2cccnc2C(O)N1Cc1ccccc1 (centres unmarked) | 12
O=C(CCNS(=O)(=O)c1ccc(Cl)cc1)N1CCOCC1 | 18.7
COc1ccc(/C=N/Nc2ccc([N+](=O)[O-])cc2)cc1Cn1cc([N+](=O)[O-])cn1 | 18.7
Cc1ccc(OCCN2C(=O)C(=O)c3cc(C)ccc32)cc1 | -2.04
CC(C)CC(COCc1cccc(C(F)(F)F)c1)N1CCN(C(=O)c2cccc(C(F)(F)F)c2)CCC1=O (centres unmarked) | 5.59
O=C(/C=C/c1cccc([N+](=O)[O-])c1)N1CCN(C(=O)c2ccco2)CC1 | -53.4
CN1CC(c2ccccc2Cl)C2(COc3ccccc3C2=O)C12C(=O)Nc1ccccc12 (centres unmarked) | 3.76
COCCCN1CC23C=CC(O2)C(C(=O)OC)C3C1=O (centres unmarked) | 0.0703
CCOc1ccc(N(CC(=O)NCc2ccccc2)S(=O)(=O)c2ccc(C)cc2)cc1 | 6.54
Cc1nc(CCNC(=O)CC2C(=O)NCCN2CC(C)C)nc2c1CCC2 (centres unmarked) | 14.9
COc1cc(C2NC(=O)NC(C)=C2C(C)=O)ccc1O (centres unmarked) | 12.5
CCc1ccc(-c2cc(C(=O)NCCCn3ccnc3)c3ccccc3n2)s1 | -28.3
Cc1cccc(NS(=O)(=O)c2ccc(C)c(C(N)=O)c2)c1 | 13.6
CC1CCCCN1C(=O)C1CCN(c2nc(-c3ccccc3)nc3c2CCC3)CC1 (centres unmarked) | -10.5
Cn1c(C(C(=O)NCC2CCCO2)N(C(=O)Cn2nnc3ccccc32)C2CCCCC2)nc2ccccc21 (centres unmarked) | 16.2
Cc1ccc(CC(SCc2ccccc2)C(=O)O)cc1C (centres unmarked) | 7.94
Cc1ccc(NC(=O)c2ccc(CNc3c(N4CCC(C)CC4)c(=O)c3=O)cc2)cc1 | 11.8

SMILES | hERG current change (%, negative = inhibition) at 1uM [%]
CCN(CC(=O)Nc1cc(Cl)ccc1C)C(=O)CN1C(=O)NC2(CCCC2)C1=O | 10.2
CN(C)C(=O)CN1CCN(C(=O)CCl)CC1.Cl | 2.52
CCC(=O)NNc1nc2c(C)c(C)ccc2s1 | 6.2
CCOC(=O)c1cc(-c2ccc(Cl)cc2)nc2onc(C)c12 | 9.14
Cc1ccc(S(=O)(=O)N2CCN(C(=O)CSc3ccc(F)cc3)CC2)cc1 | 15.1
c1ccc(CCSc2ncnc3nc[nH]c23)cc1 | 8.8
CCN(C#N)c1nc(NC(C)C)nc(NC(C)C)n1 | 10.2
CC#CCN1c2ccccc2[C@]23C[C@@H](C(=O)OC)N(C(=O)c4ccco4)C2=NC(C(=O)OC)=C(C(=O)OC)[C@H]13 | 10.4
O=C(NCC1CCCO1)c1c(O)nc2sccn2c1=O (centres unmarked) | 9.42
O=C(N[C@@H](Cc1c[nH]c2ccccc12)C(=O)O)C1CCN(S(=O)(=O)c2ccc(Cl)cc2)CC1 | 15.8
O=C(N/N=C/C=C/c1ccc2c(c1)OCO2)c1ccc([N+](=O)[O-])cc1 | -0.0157
O=C(c1ccc2c(c1)OCO2)C1CCCN(Cc2ccc(F)c(F)c2)C1 (centres unmarked) | 5.03
COc1ccc(NC(=S)N2CCN(S(=O)(=O)c3ccc(F)cc3)CC2)cc1 | 9.07
O=S(=O)(Nc1cc(Cl)ccc1N1CCCCC1)c1cccs1 | 11.6
Cc1ccc(NC(=O)c2ccco2)c(NC(=O)c2ccc(Cl)cc2)c1 | 9.21
O=C(CCl)Nc1cccc(S(=O)(=O)N2CCCCCC2)c1 | 4.52
CCN(CC)S(=O)(=O)c1cc(C)c(C)cc1OCC(=O)NC1CCCC1 | 9.67
Brc1ccc(C2=CC(c3ccco3)n3nnnc3N2)cc1 (centres unmarked) | 10.1
